These results are taken from paper PMC2757719.

This test addresses EBNA1 with a shortened Gly-Ala repeat (referred to as EBNA1) (Epstein-Barr virus).

Turning to “USP7 (ubiquitin specific protease USP7), full length (a stretch of the chain, letters omitted) (enzyme)”, the DNA binding affinity of EBNA1 for a single recognition site (EMSA), with excess USP7 against without came out at 20 fold.
